Data as given in patent US20030211992A1 (published 2003).

Target: T1, recombinant human IGFBP-3 (human, UniProt P17936)
T1 construct: biotinylated and held on a streptavidin chip in the ALS experiment
Assay: BIAcore
Experimental: Carboxymethylated dextran biosensor chips (CM5, BIAcore Inc.) were activated with EDC (N-ethyl-N′-(3-dimethylaminopropyl)-carbodiimide hydrochloride) and NHS(N-hydroxysuccinimide) according to the supplier's instructions. For immobilization, IGF mutants in 20 mM sodium acetate, pH 4.8, were injected onto the biosensor chip at a concentration of 50 μg/ml to yield approximately 450-600 RU's (resonance-responce units) of covalently-coupled protein. Unreacted groups were blocked with an injection of 1 M ethanolamine. […] Association rates (kₐ) and dissociation rates (kd) were calculated separately using a 1:1 Langmuir™ association model in the BIACORE™ evaluation software v. 3.0. The equilibrium dissociation constant (KD) was calculated as kd/kₐ.

T1 sequence (P17936 28-291 limits assumed): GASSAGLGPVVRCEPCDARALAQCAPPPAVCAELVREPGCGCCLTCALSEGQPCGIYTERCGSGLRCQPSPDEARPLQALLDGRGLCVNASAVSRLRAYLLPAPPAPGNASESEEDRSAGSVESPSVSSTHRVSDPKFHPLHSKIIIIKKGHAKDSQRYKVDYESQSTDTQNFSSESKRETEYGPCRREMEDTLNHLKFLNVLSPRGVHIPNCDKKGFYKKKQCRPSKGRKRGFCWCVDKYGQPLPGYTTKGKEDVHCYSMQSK

KD (mutant)/KD (IGF-1): 65.6
B1: F16A/F49A IGF-1 (purified, soluble) (ligand)
chain: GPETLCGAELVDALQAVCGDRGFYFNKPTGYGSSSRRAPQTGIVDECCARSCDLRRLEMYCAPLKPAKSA
